Reference: the RNAGym collection of RNA variant scans (doi:10.7554/elife.90254)
Read counts are not given, so values of variants with three or more changes are uncertain.

B1: LINE1-full (parent)
chain: UACGUAGGUGGUUUUCCCCUGAUAGUGCUAAGGGGGCCUGGAAGUUUGGACUGGGCAGAGCUCAACACAGCGUGGCAAAGUGGCUGUGGCUAGACUGCCUCUCUGGAUUCCUCGUCACUCAGCAGGGCAUCUCUGAGAGAAAUGCC

Variants of: B1
Assay: self-cleavage, relative activity (ratio to wild type); higher = more cleavage; in vitro, sequencing; the parent is a self-cleaving ribozyme

Variant | self-cleavage
U26C U45C A67U U81A | 0.18
A24U U45C U52A A65U U96A A142G | 0.02
U26C A77U U85C U91G A136U | 0
U26C A67G G144U | 0.33
U26C A78G A142G | 1.4
C28G U46C U62C A69G C111U U115C A141G | 0
U26A U52A A59G A69U G74A G89A | 0.02
U26G U45C U104C | 0
U29A G74A A136C | 1.08
G25C G34U A57U | 0.12
U26C G86A U109C | 0
U26C A50G G74A U100A U119C G127A | 0.46
U26C C38U A69G U73A U109A | 0.22
A24U U29C G55A A67G U115C A136G | 0.22
A24U G35A U100A | 0.53
U26C U29A G41U A77U U134C | 1.6
U26C U47C A107G | 1.23
A24U U46C A64G | 0.14
U26C G34A C66U | 0.04
U26C U52G A78G | 0.92
U26A A117G C146U | 1.73
U29A A79G U134C | 1.35
U29A A77G A138U | 2.42
U26C C37G A59U | 1

Variant | self-cleavage
U26C G40C A50G U109A U115G | 1.84
U26A G55A U73A A124U | 0.04
U26A U62C U81G | 0.02
U29C A30U U45C A65G | 0
U26C C63U A124C U132A | 0.19
U26A A64G U132A | 0.14
C28G A43G G86A | 0.16
U29A A65G A67U G93A U102C U104A U132C C145G | 0.06
U26A U115C A141G | 0.94
U26A A65G A67G G75U U87C | 0.09
U26A G137U A140G | 1.53
A24U G55A A77G | 0.28
U26C A69G C123U U130C | 0.63
U26C U102C A138G | 1.63
U26A G36U U73A C95U | 0.04
U26A A141G C146U | 0.86
U26A U39A A117G U132A | 0.72
A24U U46A U112C | 0.7
U26C C76U U130C U132C A136G | 2.56
U26G A64C A107G | 0
U26C U46C U81A | 2.76
U26A A57U A64G | 0.53
A24U U108C U109C U132A | 1.09
G25A U85C A138U | 0.35

Variant | self-cleavage
G27U U91C G122A G125U A129G | 0.13
U26C U100C U112A | 1.08
U26C U100C U109A A129G | 0
C28U A50G U119C U134A | 0.51
U26C U45C U132C C146U | 1.74
C28U A65G U143C | 0.07
U26C U29C G49U A142G | 0.77
U29A U102C A138G | 2.3
G25A A117U A138U | 0.73
U26A A57G U115C | 0.98
U26G U112A A117G | 1.45
U26C U96G C145A | 0.16
U29A A30G G86A | 0.13
A24U U45C U87C U143A | 0
U26C U52C A57G G137A A140G | 0.32
G25A G60A A77G U102C | 0.04
U26A G72A U134C | 1.05
U26C A30G G33A U45C | 1.91
U26A A78U G83A G127A | 0.72
U26A A50G C95U G127U | 0.09
U26A U91C U96A | 0.05
U26C U39A U81A A94G U100C U134A | 1.24
A24U U26C A59G | 0.29
G25C U45C A57G | 0.97

Variant | self-cleavage
U26A G40A A57G | 0.35
U26A U39A A138U | 1.35
U26C U52A U134C | 1.73
G27A A50G A64G | 0.29
U26A U112C U130C A142G | 0.62
U26A U52C C63U | 0.24
U26C U91C A142G | 0.68
U26C C98G A136U A141U | 0.18
U26C A67G U73A | 0.53
U26A U87A C123G | 0.08
U26A U47A A69U U104C | 0
U26A U100A A136G | 0.72
U26A G32U U47A C84U U96A U115A C118U A129U U130C | 0.03
A24U U62C U143C | 0.14
U26C G93A A142G | 0.08
U26A A78G A124G U134G | 0.23
G25U A59G A94U | 0.02
U26C A79G A117U A121C U134C | 1.93
U29C A30G U130C | 0.63
U26A U29C A42G U46C A117G A129U G135C | 1.53
G25A U52C U102C A129G | 1.79
U26C U115C U119G | 2.63
U26A U52A G88A A138U | 0.04
U26C G41U U112C | 1.56

Variant | self-cleavage
U29A A30U A124G | 0.48
U26A U29C A43U | 0.92
U29A U52A C61U | 0.07
U26C A43C A67U A77U | 0.2
U26C U52A A77G | 2.54
A24U G36U U109A | 1.21
U26A A50G U52A C66U A121U G135A | 0.07
U26C U112C A121G | 1.02
U29A G32A G44A U100C G114A A141G | 1.79
A24U U115C U119C | 1.65
U26C U46A U52A A67G A78G U130C | 0
G25C U85C A138G | 0.39
G25A U39A U134C A141G | 0.47
U26C U62A A107G | 0.14
U26G C76U A79G A129U | 2.16
U26A U52G A64G A65U C145G | 0
U26C U29C U96C | 0
A24U U47G A69U | 0.07
U26C U73C A140U U143C | 0.84
U26A U47A A78U | 1.25
U26C U73C U85A | 0
U26G U52A A117U U143A | 1.6
U26G U115C A138G | 2.04
U26G A57G A121G | 0.71

Variant | self-cleavage
U26C U85C G88A | 0
U26C U47C U100C U130A | 0
U26A A64G A140G | 0.11
G25A A65G U102C G106A | 0.04
G27U G97A A138G C145A | 0.09
G25A U39C U62C U109A A117G | 0
U26C A65G A67G G83A A117U A141G | 0.06
U29A U85A U96G | 0.2
G25U A57G A67G U85A | 0
U26C G49A G135A | 0.7
U26C A42G A67G A136G | 0.77
U26A U96C C98A U108C | 0.21
G25A U26C U47C A78G | 0.9
U26C A124C U130C | 0.92
U26A A42G A140C | 0.9
G25U A42G A121C | 1.28
U26C A67U A129G | 0.48
U29A A65G A142G | 0.04
C28G A59G C66A U96C U143A | 0.07
U26C C56G U87A U115A A129G | 0.03
U26C U108G A138G | 1.46
U26C U62C A69U | 0.03
U26C G55A A67U U119C | 0.06
U26C U46C A57G U104C C116A | 1.31

Variant | self-cleavage
U26C A79G A107U | 1.15
G27C A64G U115A U134C U143C | 0.11
U26C G122A C128U A136G U143C | 0.86
U26A G97A U130C | 0.06
U26C U81C G126A | 1.44
U26A A64G G74U G80A U109C U130C A141G | 0.26
G27U U87A A94G | 0.03
U26A U87C U100C C118A C123U | 0.16
C28A G53A U96A | 0.08
U26A A69G A107U A121U | 0.67
U26C U45C A64U | 1.05
C28G A31G U46C U85C U112C A142G | 0
U29A U39A A43G A67U C113U A124G | 0.11
U26C C28A A79G A121G | 0.66
U26C U46A A79G U100C U132C | 1.02
U26A U96C U109A A140G | 0.07
U26C G53A A107G | 0.94
U26G G122A A140G | 1.39
U26A U39A C71A | 0.13
U26A U47C A142G | 1.26
U26C A31G U112A | 1.97
U26A A57G A78U | 0.77
G25A U81C G82A A124C | 2.38
